The list shows a part of the results. The energies were worked out here from pooled read counts, against the library average; single values are noisy.
Target: T1, Pho4 (S. cerevisiae) (UniProt P07270)
T1 sequence: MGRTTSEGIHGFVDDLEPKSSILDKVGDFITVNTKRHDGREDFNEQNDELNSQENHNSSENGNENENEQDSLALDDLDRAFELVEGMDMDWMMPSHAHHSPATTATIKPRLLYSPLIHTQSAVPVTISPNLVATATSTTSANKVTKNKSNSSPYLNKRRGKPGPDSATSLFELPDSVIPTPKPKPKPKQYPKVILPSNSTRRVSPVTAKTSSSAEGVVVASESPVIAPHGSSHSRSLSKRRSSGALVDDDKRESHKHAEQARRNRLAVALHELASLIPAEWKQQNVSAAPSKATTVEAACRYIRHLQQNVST
Test: relative binding free energy (BET-seq); higher = weaker binding
Settings: reference: library average

Sequence	relative binding free energy
GGTATCACGTGGTTAG	0.02 kcal/mol
GTGAACACGTGTGTAG	-0.04 kcal/mol
CTGGGCACGTGTGTAA	-0.15 kcal/mol
CGGGGCACGTGTCGTG	-0.09 kcal/mol
GGCTGCACGTGCGTTT	0.1 kcal/mol
CGGAGCACGTGTTATT	0.09 kcal/mol
GGGGTCACGTGGGGCA	0.1 kcal/mol
GGTAGCACGTGGGTTA	-0.24 kcal/mol
TTTCCCACGTGTTTTG	0.02 kcal/mol
TTTCTCACGTGGTTAG	0.15 kcal/mol
TGCAGCACGTGTCGTG	-0.15 kcal/mol
TATGTCACGTGCAAGG	0 kcal/mol
GGTAGCACGTGGTGTG	-0.09 kcal/mol
ACACTCACGTGGTGGG	0.23 kcal/mol
TGAAGCACGTGTGGAG	0.01 kcal/mol
TAGGACACGTGTTTCT	0.12 kcal/mol
ATGTTCACGTGGACAG	0.27 kcal/mol
TTGGACACGTGGGTCT	-0.01 kcal/mol
TATAACACGTGGTGAT	-0.19 kcal/mol
TTATACACGTGTGTTT	0.11 kcal/mol
AAGTGCACGTGTAGGA	0.05 kcal/mol
AGTTTCACGTGGACAG	0.24 kcal/mol
GCTGTCACGTGTAGGG	0.02 kcal/mol
CTAGTCACGTGTAAGT	0.26 kcal/mol
TTGTGCACGTGCCATG	-0.09 kcal/mol

Sequence	relative binding free energy
TGGTTCACGTGAAAAT	0.47 kcal/mol
GATGGCACGTGTATTA	-0.07 kcal/mol
TCGGTCACGTGGTTTG	0.15 kcal/mol
GAGATCACGTGTGAGG	0.24 kcal/mol
TGGTTCACGTGGAAGG	0.18 kcal/mol
TGAGGCACGTGCATTG	-0.12 kcal/mol
AGGAACACGTGTGGGG	0.07 kcal/mol
TTCGGCACGTGCGGTT	-0.12 kcal/mol
CTAATCACGTGTTGTT	0.06 kcal/mol
TAGATCACGTGCGTTA	0.09 kcal/mol
GTGCACACGTGTTGGG	0.05 kcal/mol
TTTAACACGTGAGGGG	0.17 kcal/mol
TTGCCCACGTGTTTTT	0.2 kcal/mol
AGGCTCACGTGGATTG	0.33 kcal/mol
TAGTGCACGTGGAAAG	0.04 kcal/mol
ATTTACACGTGCGTTA	0.12 kcal/mol
GGGTGCACGTGGCCAT	-0.17 kcal/mol
ACTTGCACGTGTGTCG	0.05 kcal/mol
TTCTACACGTGGGTGG	0.07 kcal/mol
CTGGGCACGTGAAGTA	0.1 kcal/mol
GGGGACACGTGTGCAG	-0.08 kcal/mol
TGAGACACGTGGGGGC	-0.08 kcal/mol
TGTGCCACGTGGTGGA	-0.1 kcal/mol
TGTGGCACGTGGGGAC	-0.13 kcal/mol
TACATCACGTGGTGTT	0.03 kcal/mol

Sequence	relative binding free energy
TATAGCACGTGTAGTA	-0.05 kcal/mol
GTTGACACGTGTTAGG	0.21 kcal/mol
TGGCGCACGTGGCGTG	-0.11 kcal/mol
TTTAGCACGTGCGGTG	-0.17 kcal/mol
ATGTTCACGTGATAGA	0.33 kcal/mol
GGATTCACGTGTAAAT	0.56 kcal/mol
GGGAGCACGTGGTGAA	-0.06 kcal/mol
ACATTCACGTGGTGAG	0.18 kcal/mol
GGTGACACGTGAGGGG	0.3 kcal/mol
TCGGTCACGTGTTGCA	0.11 kcal/mol
AAAGGCACGTGGGCAT	-0.3 kcal/mol
GCTTCCACGTGGAGGG	0.1 kcal/mol
GTAGACACGTGAGGGT	0.2 kcal/mol
ATTTACACGTGTTGAG	0.11 kcal/mol
TAATTCACGTGCGTGA	0.08 kcal/mol
GTTGGCACGTGATTTA	-0.02 kcal/mol
CGTAACACGTGACGGT	0.19 kcal/mol
GTTCTCACGTGTAGAG	0.24 kcal/mol
GGGGTCACGTGGACAG	0.11 kcal/mol
ATGGACACGTGATAGG	0.13 kcal/mol
TAAGGCACGTGGGACT	-0.2 kcal/mol
GGGGTCACGTGCGATA	0.06 kcal/mol
GGATTCACGTGTGGCA	0.21 kcal/mol
GTGGTCACGTGACGTT	0.17 kcal/mol
TGGTGCACGTGGAGAG	-0.06 kcal/mol

Sequence	relative binding free energy
TTCTTCACGTGGGGAT	0.09 kcal/mol
TTGGTCACGTGCTCTG	-0.02 kcal/mol
TGTCGCACGTGGTCTA	0.03 kcal/mol
GTGTGCACGTGCTAAT	-0.01 kcal/mol
TTAGGCACGTGTAGGG	-0.02 kcal/mol
TGTGGCACGTGATCTA	-0.19 kcal/mol
TGAGACACGTGTCTTG	0.13 kcal/mol
AGCGACACGTGTGATG	0.19 kcal/mol
GCATTCACGTGGAGGG	0.15 kcal/mol
GATGTCACGTGATATG	0.07 kcal/mol
TTCAACACGTGGGCTT	-0.03 kcal/mol
ATCGGCACGTGGTGGA	-0.08 kcal/mol
CGGGACACGTGGGACG	-0.04 kcal/mol
ATAGGCACGTGCGTTG	-0.18 kcal/mol
GGTCACACGTGGTGAG	0.11 kcal/mol
TCGATCACGTGGTAGT	0.1 kcal/mol
ATTAGCACGTGGTAAA	-0.02 kcal/mol
GAGGGCACGTGGGAGT	-0.08 kcal/mol
GGATGCACGTGAATTG	0.26 kcal/mol
AAGGTCACGTGCGCGG	-0.02 kcal/mol
TGGTGCACGTGAACGA	0.34 kcal/mol
TGTCCCACGTGGTTTG	-0.17 kcal/mol
GGTGTCACGTGCGTTA	0.03 kcal/mol
GTGTTCACGTGCATAT	0.32 kcal/mol
GTAGTCACGTGTAAAG	0.2 kcal/mol

Sequence	relative binding free energy
TATAGCACGTGTTAAG	-0.16 kcal/mol
TGTGGCACGTGTAGTA	-0.02 kcal/mol
GTCGGCACGTGTTTGA	0.18 kcal/mol
GTTCACACGTGGTCTG	0.26 kcal/mol
GATGTCACGTGGCTTT	0.06 kcal/mol
GCGTACACGTGGGTGG	-0.03 kcal/mol
CGAGGCACGTGGGCTT	-0.2 kcal/mol
AAATTCACGTGGAGGT	0.19 kcal/mol
TGATGCACGTGGAAAT	0.12 kcal/mol
AGTGTCACGTGGCTGA	0.01 kcal/mol
GGGGTCACGTGCTATT	0.14 kcal/mol
GGCATCACGTGGTTAG	0.13 kcal/mol
GAAAACACGTGTGGTT	0.18 kcal/mol
AATATCACGTGTGGAT	0.37 kcal/mol
AGCATCACGTGTGATG	0.23 kcal/mol
ATTGTCACGTGAATTG	0.19 kcal/mol
TTAATCACGTGGTGCC	0.15 kcal/mol
CCGGTCACGTGGGGGA	0.04 kcal/mol
TGTGTCACGTGAACGT	0.18 kcal/mol
CGGGGCACGTGAGGAA	0.14 kcal/mol
TCTTTCACGTGGGATG	0.28 kcal/mol
TAGGCCACGTGAGGGG	0.01 kcal/mol
AAAGTCACGTGAAGTA	0.27 kcal/mol
AATGTCACGTGATATT	0.28 kcal/mol
TTTCGCACGTGAAATG	0.27 kcal/mol

Sequence	relative binding free energy
GGAACCACGTGGGGTA	-0.18 kcal/mol
TCGATCACGTGGGTGA	0.01 kcal/mol
AGTCCCACGTGGTGTG	-0.13 kcal/mol
TGTAGCACGTGGCGAG	-0.12 kcal/mol
TTCTGCACGTGCTTGG	-0.07 kcal/mol
GTTGCCACGTGGGTTT	-0.12 kcal/mol
GTTGACACGTGATAGT	0.24 kcal/mol
AAGAGCACGTGGGCTG	-0.21 kcal/mol
TGGATCACGTGGGTTA	0.05 kcal/mol
ATTGGCACGTGATGGA	-0.07 kcal/mol
CGTGGCACGTGTAATG	0.03 kcal/mol
TGTGACACGTGGAGGC	0.02 kcal/mol
CCTGGCACGTGATTTT	0.16 kcal/mol
TTTGCCACGTGCGTTA	-0.05 kcal/mol
TTGTACACGTGATGGC	0.44 kcal/mol
TAGACCACGTGGTTGG	-0.12 kcal/mol
GGTTTCACGTGTGCTG	0.23 kcal/mol
ATGGACACGTGCGAGG	-0.06 kcal/mol
TGACGCACGTGCTGGT	-0.21 kcal/mol
CAAGTCACGTGGTGTT	0.01 kcal/mol
AAGTCCACGTGTGTGA	0.16 kcal/mol
